# Values of other authors, collected in article PMC11006913.
# The other results are listed elsewhere or left out.
# Tests used:
# Details in all cases: PBM; conditions not shown; double strand, one strand shown; scale: upbm affinity estimate (log intensity, higher = more binding, comparable within an allelic series)
# [1] = biological target: HOXD13 I297V (Homo sapiens) (UniProt P35453)
# [2] = biological target: HOXD13 I322L (Homo sapiens) (UniProt P35453)
# [3] = biological target: HOXD13 N298S (Homo sapiens) (UniProt P35453)
# [4] = biological target: HOXD13 Q325K (Homo sapiens) (UniProt P35453)
# [5] = biological target: HOXD13 Q325R (Homo sapiens) (UniProt P35453)
# [6] = biological target: HOXD13 R306W (Homo sapiens) (UniProt P35453)
# [7] = biological target: HOXD13 S316C (Homo sapiens) (UniProt P35453)
Sequence,binding signal [1],binding signal [2],binding signal [3],binding signal [4],binding signal [5],binding signal [6],binding signal [7]
CGCGGGAG [8-mer CGCGGGAG],9.37,9.38,9.35,9.62,9.43,9.39,9.29
CCGAAGGC [8-mer CCGAAGGC],9.43,9.37,9.48,9.67,9.41,9.34,9.48
ACTCGTAA [8-mer ACTCGTAA],12.1,12.3,12.4,10.4,11.1,11.1,12
GGGGGCCA [8-mer GGGGGCCA],9.25,9.14,9.21,9.45,9.4,9.25,9.24
CCCCTCAA [8-mer CCCCTCAA],9.54,9.46,9.33,9.7,9.27,9.45,9.34
CGCCTCTC [8-mer CGCCTCTC],9.5,9.35,9.17,9.34,9.25,9.36,9.54
CCCACGGC [8-mer CCCACGGC],9.11,9.21,9.09,9.27,9.02,9.26,9.2
GTCATAAA [8-mer GTCATAAA],12.5,11.5,12.9,11.3,11.7,11.7,12.5
GTAATAAA [8-mer GTAATAAA],12.8,11.6,13,11.5,12.6,11.9,12.7
CCTCGTAA [8-mer CCTCGTAA],12.3,12.4,12.4,10.3,11.1,11,12.1
GGCGCCCA [8-mer GGCGCCCA],9.53,9.53,9.54,9.28,9.32,9.46,9.56
CCCTCCGG [8-mer CCCTCCGG],9.25,9.2,8.96,9.59,9.3,9.24,9.14
AATAAAAC [8-mer AATAAAAC],12.3,11.1,12.6,11.5,12.1,11.7,12.3
TACGATAA [8-mer TACGATAA],11.1,10.9,11.3,11.1,11.3,10.7,11.1
CATAAAAC [8-mer CATAAAAC],12.4,11.3,12.6,11.5,12,11.7,12.1
CCCCCCTC [8-mer CCCCCCTC],9.3,9.03,9.29,9.37,9.24,9.13,9.22
ATTAATAG [8-mer ATTAATAG],12.4,11.6,12.6,11.6,11.8,11.9,12.2
CGGCGCCG [8-mer CGGCGCCG],9.55,9.53,9.48,9.26,9.38,9.47,9.56
GTTTAATA [8-mer GTTTAATA],12.2,11.7,12.5,12.1,12.2,11.7,12.1
GGGAGAAC [8-mer GGGAGAAC],9.55,9.56,9.55,9.32,9.41,9.5,9.57
GTTTTATA [8-mer GTTTTATA],12.4,11.4,12.6,12.6,12.6,12.1,12.4
TCGTTAAA [8-mer TCGTTAAA],12.5,12.6,12.6,10.7,11.3,11.5,12.3
GCTGCTCC [8-mer GCTGCTCC],9.47,9.44,9.36,9.35,9.29,9.43,9.42

Sequence,binding signal [1],binding signal [2],binding signal [3],binding signal [4],binding signal [5],binding signal [6],binding signal [7]
TCATAAAA [8-mer TCATAAAA],12.7,11.3,12.9,11,11.9,12.1,12.6
CTATAAAA [8-mer CTATAAAA],12.9,11.8,13.1,12.1,12,12.6,12.9
ACCATAAA [8-mer ACCATAAA],12.5,11.5,12.7,10.7,11.2,11.6,12.4
CTCCGCCA [8-mer CTCCGCCA],9.41,9.26,9.37,9.37,9.31,9.41,9.42
TCAATAAA [8-mer TCAATAAA],12.3,11,12.5,10.4,11.3,11.8,12.3
GACCCTGC [8-mer GACCCTGC],9.33,9.29,9.29,9.71,9.53,9.37,9.49
GGGATCCC [8-mer GGGATCCC],9.45,9.54,9.25,9.78,9.42,9.56,9.42
GCCATAAA [8-mer GCCATAAA],12.2,11.2,12.4,10.4,10.9,11.3,12.1
CTATAAAC [8-mer CTATAAAC],12.8,11.7,13,11.8,11.8,12.1,12.5
CGCCTGCC [8-mer CGCCTGCC],9.44,9.37,9.4,9.62,9.49,9.44,9.35
CTCGTAAC [8-mer CTCGTAAC],12.3,12.5,12.5,10.3,10.9,10.9,12
CGCTCCCC [8-mer CGCTCCCC],9.36,9.37,9.24,9.33,9.29,9.28,9.25
TCATTAAA [8-mer TCATTAAA],12.5,12,12.7,11.2,11.9,11.9,12.4
CTCCAGAG [8-mer CTCCAGAG],9.46,9.42,9.44,9.5,9.39,9.45,9.51
ACTATAAA [8-mer ACTATAAA],12.6,11.6,12.8,11.6,11.8,11.9,12.4
ATTTATTA [8-mer ATTTATTA],12.7,11.7,12.9,11.5,12.4,12.1,12.7
CAATAAAA [8-mer CAATAAAA],13,11.6,13.2,10.8,12.1,12.6,13
CGGCCTGC [8-mer CGGCCTGC],9.18,9.34,9.24,9.17,9.21,9.27,9.27
ATATGAAA [8-mer ATATGAAA],11.3,10.8,11.6,11,11.2,10.8,11.2
CTATTAAC [8-mer CTATTAAC],12.5,11.8,12.6,11.2,11.7,11.6,12.3
AGTGATAT [8-mer AGTGATAT],11,10.6,11.1,10.9,11.1,10.5,10.8
CGCCCCAG [8-mer CGCCCCAG],9.32,9.25,9.37,9.45,9.45,9.32,9.22
CTTCTTAA [8-mer CTTCTTAA],10.9,10.7,11.1,10.8,11.1,10.5,10.8

Sequence,binding signal [1],binding signal [2],binding signal [3],binding signal [4],binding signal [5],binding signal [6],binding signal [7]
GGCACGCC [8-mer GGCACGCC],9.11,9.23,9.05,9.19,9.24,9.24,9.19
CCGGCTTC [8-mer CCGGCTTC],9.37,9.29,9.38,9.42,9.34,9.37,9.43
CCTCAGCC [8-mer CCTCAGCC],9.56,9.49,9.53,9.66,9.45,9.5,9.51
TATAAAAA [8-mer TATAAAAA],12.3,11.2,12.5,12.4,12.3,11.8,12.2
AGGGCTGG [8-mer AGGGCTGG],9.6,9.54,9.42,9.58,9.52,9.48,9.51
CTCGCGAG [8-mer CTCGCGAG],9.58,9.54,9.43,9.36,9.36,9.61,9.61
ATTTTATG [8-mer ATTTTATG],12.5,11.3,12.6,11.5,12,11.8,12.2
CCCCGGTC [8-mer CCCCGGTC],9.51,9.48,9.45,9.52,9.39,9.43,9.44
AATACATG [8-mer AATACATG],11.2,10.9,11.1,10.8,11.1,10.7,11
CTTGTAAA [8-mer CTTGTAAA],12.9,12.9,13,10.2,11.5,12,12.8
CCATTAAA [8-mer CCATTAAA],12.4,12.1,12.6,10.8,11.1,11.5,12.1
GCAGTAAA [8-mer GCAGTAAA],12.2,12.1,12.4,10.5,10.7,10.9,12
GGCCCCAC [8-mer GGCCCCAC],9.73,9.61,9.71,9.46,9.52,9.55,9.72
CGCTTGGC [8-mer CGCTTGGC],9.59,9.53,9.36,9.45,9.59,9.41,9.45
GTCGTAAA [8-mer GTCGTAAA],12.7,12.9,13,10.6,11,11.5,12.7
AGCGCTGC [8-mer AGCGCTGC],9.54,9.54,9.44,9.35,9.52,9.47,9.45
CTGTAAAC [8-mer CTGTAAAC],12,12,12.2,10.5,10.6,11.1,11.8
CGGGGCGC [8-mer CGGGGCGC],9.33,9.37,9.19,9.32,9.18,9.25,9.22
CGGTGACC [8-mer CGGTGACC],9.21,9.22,9.17,9.3,9.26,9.31,9.25
CCCATAAA [8-mer CCCATAAA],12.9,11.5,13.2,10.4,11.2,12.1,12.8
GGCCCGGA [8-mer GGCCCGGA],9.43,9.43,9.41,9.63,9.54,9.44,9.47
GACGCTGC [8-mer GACGCTGC],9.32,9.37,9.14,9.26,9.41,9.34,9.32
